{"source": "paper PMC9972007", "key": {"[1]": {"target": "Optineurin (human) (UniProt Q96CV9)", "assay": "SEC"}, "[2]": {"target": "Optineurin (human) (UniProt Q96CV9)", "assay": "dynamic light scattering"}}, "data": [{"substance": "Optineurin (a stretch of the chain, letters omitted) (natural protein; other documents disagree on this pair)", "values": [{"measurement": "stoichiometry N", "setting": "[1]", "value": 6}, {"measurement": "stoichiometry N", "setting": "[2]", "value": 6}]}]}
